Results from patent publication US12398123B2, “Chemical inhibition of the E3 ligase subunit FBXO7 confers neuroprotection and anti-inflammatory activity by stabilizing mitochondria” (University of Pittsburgh—Of the Commonwealth System of …, priority 2017, dated 2025).

Test system: Pink1
Test: target validation: Pink1 levels in BEAS-2B cells with control or Fbxo7 siRNA
Settings: control siRNA 3 days, compound 18 h

O=C(CCCn1c(SCC(=O)NCC2CCCO2)nc2ccccc2c1=O)NCc1ccccc1 (stereo not shown) [BC1464]
Pink1 levels in control cells with normal levels of Fbxo7: dose-dependent increase in Pink1 levels
